Laboratory results as given in paper PMC10252889.
These are yes or no findings as the source states them, for the method shown. Binding seen in cells or lysates may run through a third protein. Some results given as binding are weak or reduced against the parent protein; the word gives no strength. Where a sequence is shown, tags or fusion partners need not be part of it.

Chains of the proteins cited; added tags and fusions are not shown. Lines headed by an entry give the natural chain unless they say otherwise; changes in a name come on top. A line that says so, or that is headed by a name, gives the form on record, which may keep a tag or linker.
Flag-tagged TREK1 (P97438, form named): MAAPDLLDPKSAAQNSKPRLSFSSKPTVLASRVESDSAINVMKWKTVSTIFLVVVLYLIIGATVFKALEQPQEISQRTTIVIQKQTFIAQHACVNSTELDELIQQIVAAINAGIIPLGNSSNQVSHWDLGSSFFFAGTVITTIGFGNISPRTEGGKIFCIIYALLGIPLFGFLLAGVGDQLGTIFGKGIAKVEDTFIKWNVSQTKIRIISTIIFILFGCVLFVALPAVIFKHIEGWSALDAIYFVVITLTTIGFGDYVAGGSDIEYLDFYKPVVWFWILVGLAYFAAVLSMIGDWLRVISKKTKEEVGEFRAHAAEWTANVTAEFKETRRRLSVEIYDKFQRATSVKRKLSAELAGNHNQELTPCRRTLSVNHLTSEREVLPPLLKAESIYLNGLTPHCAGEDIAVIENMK
UniProt Q8BUW1: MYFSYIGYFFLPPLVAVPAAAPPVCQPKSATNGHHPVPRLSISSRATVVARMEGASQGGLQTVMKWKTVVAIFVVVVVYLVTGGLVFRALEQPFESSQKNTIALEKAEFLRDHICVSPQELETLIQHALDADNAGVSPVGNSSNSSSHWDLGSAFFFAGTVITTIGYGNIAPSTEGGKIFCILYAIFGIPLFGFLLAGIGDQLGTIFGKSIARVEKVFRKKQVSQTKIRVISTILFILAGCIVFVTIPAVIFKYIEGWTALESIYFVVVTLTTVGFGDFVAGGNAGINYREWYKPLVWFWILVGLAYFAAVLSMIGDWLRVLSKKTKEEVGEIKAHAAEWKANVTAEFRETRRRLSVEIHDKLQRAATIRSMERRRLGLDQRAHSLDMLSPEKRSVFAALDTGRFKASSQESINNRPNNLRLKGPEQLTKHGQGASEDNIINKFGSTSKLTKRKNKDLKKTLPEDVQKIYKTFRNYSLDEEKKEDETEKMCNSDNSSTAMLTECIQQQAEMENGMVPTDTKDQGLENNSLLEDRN

Assays:
[1] = molecular target: T1, VC-tagged TRAAK (TWIK-related acid-arachidonic activated K+ channel) (mouse) (UniProt O88454); assay: split reporter; BiFC with split Venus (VN-tagged β-COP, VC-tagged channel) in co-transfected HEK293T cells, 24 h, fixed with 4% paraformaldehyde, confocal microscopy
T1 sequence: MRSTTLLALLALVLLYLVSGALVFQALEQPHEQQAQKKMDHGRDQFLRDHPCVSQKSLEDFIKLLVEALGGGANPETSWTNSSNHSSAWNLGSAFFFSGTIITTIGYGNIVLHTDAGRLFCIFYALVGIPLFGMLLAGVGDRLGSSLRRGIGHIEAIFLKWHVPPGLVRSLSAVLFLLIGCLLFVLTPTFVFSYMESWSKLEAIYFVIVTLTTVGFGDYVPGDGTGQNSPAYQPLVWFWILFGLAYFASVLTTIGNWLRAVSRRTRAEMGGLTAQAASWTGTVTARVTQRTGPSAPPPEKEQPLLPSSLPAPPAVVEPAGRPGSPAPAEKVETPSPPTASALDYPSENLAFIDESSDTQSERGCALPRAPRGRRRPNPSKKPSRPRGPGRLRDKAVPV

[2] = molecular target: VC-tagged TREK1 (TWIK-related K+ channel 1) (mouse) (UniProt P97438); assay: as above
[3] = molecular target: VC-tagged TREK2 (TWIK-related K+ channel 2) (mouse) (UniProt Q8BUW1); assay: as above
[4] = molecular target: T2, Flag-tagged TRAAK (mouse) (UniProt O88454); assay: co-IP; HEK293T cells co-transfected with Flag-tagged channel and GFP-β-COP; lysate immunoprecipitated with anti-Flag overnight at 4 °C, Protein G agarose, blotted with anti-GFP
T2 sequence: T1 sequence

[5] = molecular target: Flag-tagged TREK1 (mouse) (UniProt P97438); assay: as above
[6] = molecular target: Flag-tagged TREK2 (mouse) (UniProt Q8BUW1); assay: as above
GFP-tagged TREK2 (mouse) = GFP-tagged TREK2 (mouse) (UniProt Q8BUW1); assay: co-IP; HEK293T cells co-transfected with GFP-tagged TREK2 or its deletion mutants and mCh-β-COP; lysate immunoprecipitated with anti-GFP overnight at 4 °C, Protein G agarose, blotted with anti-mCh (anti-RFP)

B1: VN-tagged β-COP (β-coat protein) (protein, UniProt Q9JIF7 1-953)
chain: MTAAENVCYTLINVPMDSEPPSEISLKNDLEKGDVKSKTEALKKVIIMILNGEKLPGLLMTIIRFVLPLQDHTIKKLLLVFWEIVPKTTPDGRLLHEMILVCDAYRKDLQHPNEFIRGSTLRFLCKLKEAELLEPLMPAIRACLEHRHSYVRRNAVLAIYTIYRNFEHLIPDAPELIHDFLVNEKDASCKRNAFMMLIHADQDRALDYLSTCIDQVQTFGDILQLVIVELIYKVCHANPSERARFIRCIYNLLQSSSPAVKYEAAGTLVTLSSAPTAIKAAAQCYIDLIIKESDNNVKLIVLDRLVELKEHPAHERVLQDLVMDILRVLSTPDLEVRKKTLQLALDLVSSRNVEELVIVLKKEVIKTNNVSEHEDTDKYRQLLVRTLHSCSVRFPDMAANVIPVLMEFLSDSNEAAAADVLEFVREAIQRFDNLRMLIVEKMLEVFHAIKSVKIYRGALWILGEYCSTKEDIQSVMTEVRRSLGEIPIVESEIKKEAGELKPEEEITVGPVQKLVTEMGTYATQSALSSSRPTKKEEDRPPLRGFLLDGDFFVAASLATTLTKIALRYVALVQEKKKQNSFVAEAMLLMATILHLGKSSLPKKPITDDDVDRISLCLKVLSECSPLMNDIFNKECRQSLSQMLSAKLEEEKLSQKKESEKRNVTVQPDDPISFMQLTAKNEMNCKEDQFQLSLLAAMGNTQRKEAADPLASKLNKVTQLTGFSDPVYAEAYVHVNQYDIVLDVLVVNQTSDTLQNCTLELATLGDLKLVEKPSPLTLAPHDFANIKANVKVASTENGIIFGNIVYDVSGAASDRNCVVLSDIHIDIMDYIQPATCTDAEFRQMWAEFEWENKVTVNTNMTDLNDYLQHILKSTNMKCLTPEKALSGYCGFMAANLYARSIFGEDALANVSIEKPVHQGPDAAVTGHIRIRAKSQGMALSLGDKINLSQKKTSL
For B1, the binding [1] was “no binding”, the binding [2] was “binds” and the binding [3] was “binds”.

B2: GFP-tagged β-COP (protein, UniProt Q9JIF7 1-953)
chain: B1 chain
For B2, the binding [4] was “no binding”, the binding [5] was “binds” and the binding [6] was “binds”.

B3: mCherry-tagged β-COP (protein, UniProt Q9JIF7 1-953)
chain: B1 chain
B3 was tested, and the binding (GFP-tagged TREK2 (mouse)) was “binds”.
